Reference: the supplement of paper PMC12217912
Some of the results follow. Sequences were assembled here from the parent chain. Inactive controls read about 0.05.

B1: TEV protease; numbered along this chain (parent)
chain: MGESLFKGPRDYNPISSSICHLTNESDGHTTSLYGIGFGPFIITNKHLFRRNNGTLVVQSLHGVFKVKDTTTLQQHLVDGRDMIIIRMPKDFPPFPQKLKFREPQREERICLVTTNFQTKSMSSMVSDTSCTFPSGDGIFWKHWIQTKDGQCGSPLVSTRDGFIVGIHSASNFTNTNNYFTSVPKNFMELLTNQEAQQWVSGWRLNADSVLWGGHKVFMVKPEEPFQPVKEATQL

Variants of: B1
Assay: raw area under fraction-flipped curve 0-4 h after induction (AUC4h, not background-subtracted), DNA-recorder readout of cleavage of the substrate (dimensionless); higher = more cleavage of the substrate by the protease variant
Details: temperature: 34 °C; time window: 0-4 h after rhamnose induction
Method: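 In vivo DNA recorder in E. coli TOP10(DE3) ΔrhaA at 34 °C. Each TEVp single-site mutant (parent TEVp 0) is paired with a single-site variant of the 7-mer TEVs (canonical ENLYFQ|S). The substrate sits between flexible linkers in a Bxb1-sfGFP-TEVs-SsrA fusion, so cleavage stabilises Bxb1 and speeds flipping of a recombination array, read by NGS. The value is the raw area under the fraction-flipped curve over 0-4 h after rhamnose induction (AUC4h), with ≥20 reads per time point. It is not background-subtracted; inactive controls average about 0.047.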
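Also: Bxb1 expression induced with 0.2% (w/v) L-rhamnose at OD600 near 0.5, cultures sampled hourly, flipped fraction per protease–substrate barcode pair counted by paired-end Illumina sequencing.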

Row | Variant | area with substrate ENAYFQS | area with substrate ENDYFQS | area with substrate ENEYFQS | area with substrate ENFYFQS | area with substrate ENMYFQS | area with substrate ENNYFQS | area with substrate ENQYFQS | area with substrate ENSYFQS | area with substrate ENTYFQS | area with substrate ENVYFQS | area with substrate ENWYFQS | area with substrate ENYYFQS | area with substrate ENCYFQS | area with substrate ENIYFQS | area with substrate ENPYFQS | area with substrate ENGYFQS | area with substrate ENHYFQS | area with substrate ENKYFQS | area with substrate ENRYFQS
1 | S32K | 0.0364 | 0.0648 | 0.0461 | 0.0482 | 0.0841 | 0.0571 | 0.0639 | 0.0629 | 0.0626 | 0.063 | 0.0486 | 0.04 | – | – | – | – | – | – | –
2 | S32T | 0.0615 | 0.0645 | 0.067 | 0.0779 | 0.0797 | 0.0539 | 0.0408 | 0.0729 | 0.0578 | 0.0957 | 0.0655 | 0.054 | 0.0615 | 0.115 | 0.0699 | – | – | – | –
3 | S32V | 0.0616 | 0.068 | 0.0563 | 0.0605 | 0.0724 | 0.058 | 0.0713 | 0.0659 | 0.0683 | 0.0687 | 0.0072 | 0.0644 | 0.0619 | 0.0862 | – | 0.0675 | 0.0604 | 0.0593 | 0.0527
4 | Q74S | 0.0691 | 0.0688 | 0.0632 | 0.0444 | – | 0.0409 | 0.0549 | – | 0.0658 | 0.0711 | – | – | 0.0768 | 0.0924 | 0.0637 | 0.0392 | 0.045 | 0.0573 | –
5 | L56K | 0.0316 | 0.0379 | 0.0482 | 0.0403 | 0.0324 | – | 0.0476 | 0.0452 | 0.0592 | 0.0512 | – | – | 0.0486 | – | 0.0317 | 0.0451 | – | 0.052 | 0.0339
6 | L56F | 0.0579 | 0.061 | 0.0598 | 0.0599 | – | 0.0585 | 0.045 | 0.0663 | 0.0487 | 0.0653 | – | 0.0639 | 0.069 | 0.0848 | 0.0625 | 0.0684 | 0.0553 | 0.0789 | 0.0572
7 | L56G | 0.0708 | 0.0454 | 0.0444 | 0.0455 | 0.0501 | 0.0128 | 0.0416 | 0.0521 | 0.0103 | 0.0399 | 0.0452 | – | 0.0587 | – | 0.0485 | – | – | – | 0.0358
8 | L56R | 0.0595 | 0.0579 | 0.0615 | 0.042 | 0.0377 | 0.051 | 0.0249 | – | 0.0381 | 0.0355 | 0.0359 | 0.0549 | 0.0366 | – | 0.0369 | 0.0389 | 0.0384 | 0.0476 | 0.047
9 | L56H | 0.0722 | 0.0379 | – | – | 0.0502 | – | 0.0501 | – | – | 0.0654 | 0.0483 | 0.0589 | 0.051 | 0.0492 | – | 0.0503 | 0.0529 | 0.0551 | 0.0251
10 | L56A | 0.0421 | 0.0549 | 0.0548 | 0.0513 | 0.0564 | 0.0788 | 0.0417 | 0.0504 | 0.0487 | 0.0591 | – | – | 0.0445 | 0.0779 | – | 0.0502 | – | – | 0.0457
11 | D69G | 0.0595 | 0.053 | 0.0535 | 0.0682 | 0.0699 | 0.0601 | 0.0548 | 0.0889 | – | – | 0 | – | – | – | – | – | 0.0536 | – | 0.0444
12 | D69P | 0.0615 | 0.0549 | 0.064 | 0.0586 | 0.0687 | 0.0575 | 0.0583 | 0.0556 | 0.0456 | 0.067 | 0.0092 | 0.0426 | 0.0612 | 0.0979 | 0.0684 | 0.0646 | 0.0513 | 0.0522 | –
13 | L73V | 0.0618 | 0.0681 | 0.0643 | 0.0683 | 0.0804 | 0.0778 | 0.0413 | 0.0628 | – | 0.0688 | – | – | – | 0.0948 | – | 0.058 | – | 0.0598 | 0.0633
14 | N45L | 0.0447 | 0.0652 | 0.0616 | – | – | 0.0495 | 0.0627 | 0.0618 | 0.0517 | 0.0569 | – | – | – | – | 0.0252 | – | 0.0723 | 0.0643 | 0.047
15 | N45W | 0.0606 | 0.0621 | 0.0593 | 0.0604 | 0.0657 | 0.0571 | 0.0591 | 0.0622 | 0.0542 | 0.0601 | 0.055 | – | 0.061 | 0.0744 | – | 0.0798 | 0.0699 | – | 0.0541
16 | N45Y | 0.0592 | 0.063 | 0.0635 | 0.0469 | 0.0484 | 0.0638 | 0.0583 | 0.0648 | 0.0607 | 0.0411 | 0.0379 | 0.0621 | 0.0512 | 0.0723 | – | 0.0572 | 0.0532 | 0.0668 | 0.0681
17 | K46N | 0.0595 | 0.0631 | 0.0566 | – | – | 0.0615 | 0.0655 | 0.0834 | – | 0.0614 | – | – | – | – | – | 0.0657 | – | 0.0477 | –
18 | N52G | 0.0787 | 0.057 | 0.0598 | 0.0645 | 0.0592 | 0.0561 | 0.0587 | – | 0.0628 | 0.0581 | – | 0.0588 | 0.0608 | 0.0839 | 0.0592 | 0.0682 | 0.0622 | 0.0496 | 0.0549
19 | F41D | 0.043 | 0.0377 | 0.057 | – | – | 0.0551 | 0.0456 | 0.059 | 0.0577 | 0.0562 | 0.057 | – | 0.0484 | – | 0.0449 | – | 0.0469 | 0.0516 | 0.0477
20 | T44R | 0.0524 | 0.0501 | 0.0461 | 0.0478 | 0.0434 | 0.0475 | 0.0516 | 0.0513 | 0.0465 | 0.0278 | 0.0325 | – | 0.0646 | – | 0.0312 | 0.0484 | – | 0.0543 | 0.0479
21 | H62K | 0.0966 | – | 0.0691 | – | – | – | 0.0625 | 0.0595 | 0.0645 | 0.0757 | 0.0612 | – | 0.0634 | 0.0926 | – | – | – | – | 0.0585
22 | F38R | 0.0532 | 0.0485 | 0.0538 | 0.0539 | – | 0.0521 | 0.0612 | 0.0608 | 0.0721 | 0.0549 | 0.0377 | 0.066 | 0.053 | 0.0608 | 0.06 | 0.0574 | 0.0482 | 0.0435 | 0.0566
23 | T72F | 0.0752 | 0.0651 | 0.0564 | 0.0534 | – | – | 0.0598 | 0.0459 | 0.0537 | 0.058 | 0.0422 | – | 0.0649 | 0.112 | – | 0.0553 | 0.0571 | 0.0609 | 0.0588
24 | T72K | 0.0534 | 0.0623 | 0.0774 | 0.0865 | 0.0796 | 0.0557 | 0.0579 | 0.0661 | – | 0.0839 | 0.0633 | 0.0616 | 0.0626 | 0.116 | 0.0197 | 0.0564 | 0.037 | 0.0559 | 0.043
